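96-well plates; 48 h exposure; 5 concentrations. Endpoints by linear interpolation between flanking doses. Not reached: highest tested concentration assigned. Abbreviation: GI50, concentration required for 50% inhibition of growth.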 Some entries of the source have several records that differ or are many. The other results are left out here. An entry can have further records. For some assays here: The tests behind the records often covered other concentration ranges, which the source does not state; a value can be the end of its range. For some assays here: Values given together are repeats in other runs, samples, wells, individuals or studies. Marks in square brackets tell the records apart. A, B and so on number the origins entry by entry.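 TGI is the concentration that stops growth completely.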
How the values were obtained:
Assay in all cases: NCI-60 cell line screen, 48 h
[1] = system: SK-MEL-2 melanoma
[2] = system: COLO 205 colon
[3] = system: EKVX NSCLC
[4] = system: HOP-92 NSCLC
[5] = system: K-562 leukemia
[6] = system: MALME-3M melanoma
[7] = system: MCF7 breast
[8] = system: NCI-H23 lung
[9] = system: NCI-H460 lung
[10] = system: NCI-H522 lung
[11] = system: OVCAR-3 ovarian
[12] = system: OVCAR-8 ovarian
[13] = system: RPMI-8226 leukemia
[14] = system: RXF 393 renal
[15] = system: SF-539 CNS
[16] = system: SK-MEL-28 melanoma
[17] = system: SN12C renal
[18] = system: SNB-19 CNS
[19] = system: SW-620 colon
[20] = system: U251 CNS
[21] = system: SNB-75 CNS
[22] = system: SR leukemia

COC1OC(COC(C)=O)C(OC(C)=O)C(OC(C)=O)C1NC(=O)N(CCCl)N=O (stereo unspecified)
GI50 [1]: 2.77 µM [sample A, 1 test] and > 100 µM [sample B, 1 test]

CCCCCCCCCCS(=O)CC(CO)NC(=O)/C=C/c1c(C)[nH]c(=O)[nH]c1=O (stereo unspecified)
TGI [2]: 1.39 µM and 14.7 µM | TGI [3]: 5.38 µM and 74 µM | TGI [4]: 1.65 µM and 30.7 µM | TGI [5]: 7.18 µM and > 100 µM | TGI [6]: 4.18 µM and 58.2 µM | TGI [7]: 3.88 µM and > 100 µM | TGI [8]: 3.07 µM and > 100 µM | GI50 [9]: 3.81 µM [1 test] and 90.3 nM [mean of 5 tests] | TGI [10]: 540 nM and 26.3 µM | GI50 [11]: 16 µM [1 test] and 313 nM [mean of 5 tests] | TGI [11]: 32.8 µM [1 test] and 1.87 µM [mean of 5 tests] | GI50 [12]: 19.3 µM [1 test] and 178 nM [mean of 5 tests] | TGI [12]: 35.1 µM [1 test] and 1.23 µM [mean of 5 tests] | TGI [13]: 7.94 µM and > 100 µM | TGI [14]: 2.56 µM and 31.1 µM | TGI [15]: 2.49 µM and 30.3 µM | TGI [1]: 3.83 µM and > 100 µM | TGI [16]: 9.07 µM and > 100 µM | TGI [17]: 2.06 µM and 32.6 µM | GI50 [18]: 11.9 µM [1 test] and 136 nM [mean of 3 tests] | TGI [19]: 9.31 µM and > 100 µM | TGI [20]: 1.5 µM and > 100 µM

C[C@@]1(C(=O)Nc2ccc(F)nc2)CCCN1c1nc(Nc2cc(C3CC3)[nH]n2)c2cccn2n1
GI50 [5]: 398 nM [sample A, mean of 2 tests] and 12.8 µM [sample B, 1 test] | TGI [21]: 317 nM [sample A, 1 test] and 4.31 µM [sample B, mean of 2 tests] | GI50 [22]: 319 nM [sample A, mean of 2 tests] and 4.31 µM [sample B, 1 test]

Source: PubChem BioAssay (NCI)
